Test results as given in the antibiotic and cytotoxicity screens of Wong et al. (2023).
Some of the results follow.

Experiments:
HSkMC = human skeletal muscle cells; assay: cytotoxicity call (relative viability < 0.9); details: 10 µM
HepG2 = assay: cytotoxicity call (relative viability < 0.9); details: 10 µM
S. aureus RN4220 = assay: growth inhibition call (relative growth <= 0.2); details: 50 µM

| Compound | cytotoxicity call (HSkMC) | cytotoxicity call (HepG2) | growth inhibition call (S. aureus RN4220) |
| --- | --- | --- | --- |
| CC=C(C)C(=O)O[C@H]1[C@H](OC(C)=O)[C@]2(CO)[C@H](O)C[C@]3(C)C(=CC[C@@H]4[C@@]5(C)CC[C@H](O[C@@H]6O[C@H](C(=O)O)[C@@H](O[C@@H]7O[C@H](CO)[C@@H](O)[C@H](O)[C@H]7O)[C@H](O)[C@H]6O[C@@H]6O[C@H](CO)[C@@H](O)[C@H](O)[C@H]6O)[C@](C)(CO)[C@@H]5CC[C@]43C)[C@@H]2CC1(C)C | active | active | inactive |
| C[C@H]1CN([C@@H](C)CO)C(=O)Cc2cc(NC(=O)CCCCCC(=O)Nc3ccccc3N)ccc2O[C@@H]1CN(C)C(=O)Nc1ccc(C(F)(F)F)cc1 | inactive | inactive | inactive |
| Cc1ccc(S(=O)(=O)N(C)C[C@H]2OCCCC[C@H](C)Oc3ccc(NS(=O)(=O)c4ccc(F)cc4)cc3C(=O)N([C@H](C)CO)C[C@H]2C)cc1 | inactive | inactive | inactive |
| COc1ccc(CN(C)C[C@@H]2Oc3ccc(NC(=O)CCN4CCOCC4)cc3C(=O)N([C@H](C)CO)C[C@@H]2C)cc1 | inactive | inactive | inactive |
| COc1ccc(S(=O)(=O)Nc2ccc3c(c2)C(=O)N([C@H](C)CO)C[C@@H](C)[C@@H](CN(C)S(=O)(=O)c2ccccc2)O3)cc1 | inactive | inactive | inactive |
| COc1cccc(C(=O)Nc2ccc3c(c2)C(=O)N(C)[C@@H]2CC[C@H](CC(=O)NCC(F)(F)F)O[C@@H]2CO3)c1 | inactive | active | inactive |
| C[C@H]1CN([C@@H](C)CO)S(=O)(=O)c2ccc(C3=CCCCC3)cc2O[C@H]1CN(C)S(=O)(=O)c1cn(C)cn1 | inactive | inactive | inactive |
| C[C@H](CO)N1C[C@H](C)[C@H](CN(C)C(=O)Cc2ccccn2)Oc2cc(-c3ccc(C(=O)N(C)C)cc3)ccc2S1(=O)=O | inactive | inactive | inactive |
| COc1ccc(S(=O)(=O)Nc2ccc3c(c2)CC(=O)N([C@@H](C)CO)C[C@@H](C)[C@@H](CN(C)CC2CC2)O3)cc1 | inactive | inactive | inactive |
| O=P(O)(O)C(Cl)(Cl)P(=O)(O)O | inactive | active | inactive |
| C[C@H]1CN([C@@H](C)CO)C(=O)Cc2cc(NC(=O)Nc3cccc4ccccc34)ccc2O[C@@H]1CN(C)C(=O)Nc1ccc(C(F)(F)F)cc1 | inactive | inactive | inactive |
| NC[C@H]1O[C@H](O[C@H]2[C@H](O)[C@@H](O[C@H]3O[C@H](CO)[C@@H](O)[C@H](N)[C@H]3O)[C@H](N)C[C@@H]2N)[C@H](N)C[C@@H]1O | inactive | inactive | active |
| C[C@H](CO)N1C[C@H](C)[C@@H](CN(C)S(=O)(=O)c2ccccc2)OCCCC[C@H](C)Oc2ccc(NC(=O)Nc3ccc(C(F)(F)F)cc3)cc2C1=O | inactive | inactive | inactive |
| Cc1ccc(S(=O)(=O)N[C@@H]2CC[C@H](CC(=O)NCc3ccc(Cl)c(Cl)c3)O[C@H]2CO)cc1 | inactive | inactive | inactive |
| CC1CCC(NC(=O)N(CCCl)N=O)CC1 (stereo not given) | inactive | inactive | inactive |
| CN(C)CCOc1ccc(CN)cc1 | inactive | inactive | inactive |
| C[C@H]1CN([C@@H](C)CO)C(=O)c2cc(NC(=O)CCCN(C)C)ccc2O[C@H]1CN(C)C(=O)Nc1ccc2c(c1)OCO2 | inactive | inactive | inactive |
| Cc1ccc(S(=O)(=O)Nc2ccc3c(c2)CC(=O)N([C@@H](C)CO)C[C@@H](C)[C@H](CN(C)Cc2ccc(C(F)(F)F)cc2)O3)cc1 | inactive | inactive | inactive |
| CCN(CC)c1ccc(CN)cn1 | inactive | inactive | inactive |
| O=C(O)c1cccc(C(=O)O)n1 | inactive | inactive | inactive |
| O=C(C[C@@H]1CC[C@H](NC(=O)c2cccnc2)[C@H](CO)O1)NCCN1CCCCC1 | inactive | inactive | inactive |
| Cc1noc(C)c1S(=O)(=O)N(C)C[C@@H]1OCCCC[C@H](C)Oc2ccc(NC(=O)Nc3ccc(F)cc3)cc2C(=O)N([C@H](C)CO)C[C@@H]1C | inactive | inactive | inactive |
| O=c1ccc(=O)n(CCO)[nH]1 | inactive | inactive | inactive |
| Cc1noc(C)c1NC(=O)N(C)C[C@H]1Oc2ccc(NC(=O)Cn3cnnn3)cc2C(=O)N([C@@H](C)CO)C[C@@H]1C | inactive | inactive | inactive |
| Cc1noc(C)c1NC(=O)N(C)C[C@H]1Oc2c(NC(=O)NC(C)C)cccc2C(=O)N([C@@H](C)CO)C[C@H]1C | inactive | inactive | inactive |
